Variants at the floor of the assay are shown more often than the library holds them.
B1: TPR 5TU (parent)
chain: GGAUCUUCUCGAUCUAACAAAAAAGACAAAUCUGCCACAAAGCUUGAGAGCAUCUUCGGAUGCAGAGGCGGCAGCCUUCGGUGGCGCGAUAGCGCCAACGUUCUCAACUAUGACACGCAAAACGCGUGCUCCGUUGAAUGGAGUUUAUCAUG

Variants of: B1
Assay: polymerase ribozyme fitness, log enrichment relative to wild type (log ratio); higher = more active; in vitro selection for triplet polymerase activity
Outline: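 PCR was used to build mutant libraries for each subunit of a heterodimeric triplet polymerase ribozyme, which were then transcribed. A single in vitro selection round, in triplicate, used a frozen incubation at −7 °C and recovered extended constructs by gel excision, streptavidin beads and RT-PCR. Fitness is the logarithm of genotype enrichment relative to wild-type enrichment, averaged over replicates with inverse-variance weights. The logarithm is base 2, and after Illumina sequencing only genotypes with ≥10 input reads and ≥1 read per output were kept.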

Polymerase ribozyme fitness (log ratio), -4.17:
U61G C95G U135C

Polymerase ribozyme fitness (log ratio), -2.27:
A64G

Polymerase ribozyme fitness (log ratio), -3.43:
U61G C85A G143C

Polymerase ribozyme fitness (log ratio), -3.57:
U61A G92C

Polymerase ribozyme fitness (log ratio), -3.99:
A64U

Polymerase ribozyme fitness (log ratio), -4.13:
G65A G136C A147C
U61C G70A

Polymerase ribozyme fitness (log ratio), -2.9:
U61A C69U A98U

Polymerase ribozyme fitness (log ratio), 0.561:
C63U C99U C116A

Polymerase ribozyme fitness (log ratio), -4.06:
G65A C76A A122U

Polymerase ribozyme fitness (log ratio), 0.392:
A60U G141U

Polymerase ribozyme fitness (log ratio), 0.138:
G62U C116U

Polymerase ribozyme fitness (log ratio), -3.31:
G62U C72U C93U A122G

Polymerase ribozyme fitness (log ratio), -1:
A60G G83A G133C

Polymerase ribozyme fitness (log ratio), -1.28:
U61G G62A C87U

Polymerase ribozyme fitness (log ratio), -0.225:
C63U A73G

Polymerase ribozyme fitness (log ratio), -4.18:
U61G G88A

Polymerase ribozyme fitness (log ratio), -1.41:
U61A C95A

Polymerase ribozyme fitness (log ratio), ≤ -4.2:
A60U G92U C93U C95U C125U
A66G C93U U139A G141A U146G
G62C G71C U82A C95U A97U
A64U U146C
C63U A66G G67U C75U G94U C99A A110G G143A
U61G A64C G81U C95A C96U U102C
U61G C69G U82G G92A A98U C131G
A66C G74C C85G U104C A107G A115G U135G A138U G140U U148A
U61A A89U C95G G133C
C63U C87A A121U U135A G136A
A66C G84A A110G A115G
A64U A66G G84A
A64C G88A A138U
G65U C85U C108G G140A
U61A A107C G128U U139A
A64U C99A
C63U A64C G128A G141C
U61A C93A
U61A C93G
A64C G67U G70A C93U
G65A C85A G143C
G62U U90A
G65C A73U
A64U C93U
A60G G67A U78C U102A A107G
G67A A91G
A66U C85U C93U U134C A142U U145G
G62A C69G C76G
G62A G68C U82A C85G C95G U101C U145C
G65C G67C
A66C C87G C105G
A64G G94A U139G
U61A C85U C93G G133U G143A
C63U C87A C103A G136A
A66C C79G G83U
G65C G74C G88A C93G U146A
U61G G71C U102G C123U A142C
G62U C63U G68A C95A C103A
G65A G86C A142C
C63G A66U G68C C85U G124C
A64G U82A A91U A97C A122G A142C
A64G C76A G86A C108G A113U
C63U A66G C79G G83U G94U C105G U146G
U61C G71U G83U C87A A107U
U61A G67C C99A A107U
U61A G128A A150C
A60U C75U G83C C95U
A66C C132U U139G
A64C C149A G152U
A66C U77A A91U U127C
G62A C108A C132A U139G
A64G G65C U82C A113C U139C
A66C U90G A150C
C63A C87G
C63G U77G G88U A89C A91G C95A
A64C U90C A138U G152A
A66C U135A
C63U C85U C123U U127A G141U
A60G U61G C76A G124C C125G
G62C G74C G83A
G62U C63U A64G C76G G84U A91C C96G C108G C131G
A60G U61A C69U G86A C114U U144G
U61C G88U
U61G C93G
G65C C87A A106U G143A
G65A G84A A137G G140C
A66C C96G C99U C125A A150G
A66C C116U U139G
A64C C75G C96G
A66G C75U C79G C85A A142C
U61A C76A A106C C108G U135G G143U
C63G A66G G68A
G62C C79U G141U
U61A C85A C96A C105A U151A
A66G G68C U109G C132A G141U
C63U C69U C76U C93A A113U G136C
U61A C85A A97G A98G G141C
U61C A91G
G65C A66C A73C C87A
A60G G86U U101G G143U
A60U G92A C114U G140C A147C
U61A C69U G88A C99G G140A
A66C C95U A98G U130G
A66C C76U A91U A97U C114U A142G
A64U G83C C87G G126C U144C U148A G152U
U61A A91U U127G
C63A C125G G133A G141U
U61A G74C G86C
G65C G81U G94C C105G A115G C129U A138C
A66C G100U
A64G A66C G70U G84A A89U U146G
A64U A91U A115U
A66C C85G A122C
C63U G70C C87G A89G C96A G126C
C63U C76U C79G G81A G88U C116U G136C A137U
G62U A73C C95G A113U C116G U145C
A66U U101C
G62A C87U G92U A147C U151A
A64G A73G A98U G128U
U61A C85G C105G
U61A C76G
U61A G65U C85U
U61G G83C C96A U104G C118A C123U G128A
G62U G68A A147C
A64C U77G G86C U90C G124U C125A
A66C C85U A119G U127C
A64C
G62A A106G U130G C149G
A60U A91U
G62C C87U C96U A110C
G62A A73G C87U U102A C129A A147C
A66C G67A A73G
G62U A64C C87G G88A C103G G133A
U61C G67A G68C C79U A98G
C63A C87U A89G G124A U145C
A64U G86A A91C C99G G141A
A66C C69U G71C G92U A119G U145C
G62A G84A U90C G140C U151G
A66C G136A U139A
U61A C85G G92A A107U
G62U C87A
A66C C95A C96G A107U C118U A142U
U61A C75A G128A A137C
A64G G81C G83C G100C
A66U A91U C96U C116G U130G
A60G U130G G141A U145G
A60U C63U C75A G92C C93U A121U G143A
A66C C85A C95A A121U G126A U151C
U61A G88C A97U
G62A C79G G83U C103U A107G C116G U148A
A64G A66G
A66G C85U C99A G141C
A60U C85G G92C U102G
U61G G94A C108G
A60G G71A U78A C96U
A64G A73G G88C A89G G92A A115G C118A U148C
A60G G100A U151G
A60G G88U U101G
C63G A66C C87A G124C G140C
C63U G68A G83C A115C
C63G C108G C129G
G65C C132A A137C
A66U C103A C116U
G62A A66G G67A G83A C125U
A64U C76U G83C

Polymerase ribozyme fitness (log ratio), 0.854:
C63U A150U

Polymerase ribozyme fitness (log ratio), -0.337:
C63G C72U C93U

Polymerase ribozyme fitness (log ratio), -3.91:
G62U A106C U146G C149U

Polymerase ribozyme fitness (log ratio), -3.6:
U61A C76A

From the RNAGym collection of RNA variant scans (doi:10.1073/pnas.2313332121)
